{"source": "PubChem BioAssay AID1347417", "about": "(National Center for Advancing Translational Sciences (NCATS), 2020)", "note": "In all, about 120,000 compounds went through this assay and about 5,300 (4.4%) were called active. The inconclusive results got no clear call from the source; some entries with a clear call stand among them for comparison. The call rests on the fitted dose curve; in most records, active means well fitted inhibition curve with a large enough effect; inconclusive means small, poorly fitted or top-dose-only effect; inactive means no such curve, though single readings can be large or run the other way. A potency beside an inconclusive call is a rough fit, not a confirmed value. Potency means the concentration at half of the fitted maximal effect; tags describe the fitted curve by direction and shape.", "data": [{"assay": "qHTS Primary assay for Inhibitors of Plasmodium falciparum Dd2 growth in vitro; further: nearly all actives have a fitted effect of over 65% in size;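 on activity, negative = inhibition: plate controls were DMSO vehicle for no effect and reference drug for full effect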", "settings": "P. falciparum Dd2 growth, SYBR Green, 72 h; activity, negative = inhibition: at 28.9 µM (top of the series) unless noted; series mostly up to 28.9 µM", "in_short": "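Infected erythrocytes (Dd2, 0.3% parasitemia, 2.5% hematocrit final) are added to compound in RPMI-1640/Albumax II medium, grown 72 h at 37C in low oxygen, then lysed with saponin/Triton-X containing SYBR Green and read by fluorescence.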", "values": [{"smiles": "O=C(Cn1c(=O)n(Cc2ccco2)c(=O)c2sc3ccccc3c21)Nc1ccccc1C(F)(F)F", "Potency": "inconclusive: 17.8 µM [inhibitor, single point]"}, {"smiles": "CSc1ccc(CCNC(=O)CCc2c(C)nc3c4cccnc4nn3c2C)cc1", "Potency": "inconclusive: 11.2 µM [inhibitor, partial curve]"}, {"smiles": "CN1C(=O)CCC2(CNC(=O)c3ccccc3)CCCC=C12", "note": "(stereo unspecified)", "Potency": "inactive"}, {"smiles": "O=C(Nc1ccc(F)c(F)c1)c1ccc(F)c(S(=O)(=O)N2CCC3(CC2)OCCO3)c1", "Potency": "inconclusive: 10 µM [inhibitor, single point]"}, {"smiles": "O=C(NC1CCN(c2cc(-c3ccccc3)[nH]n2)CC1)c1cnccn1", "Potency": "inconclusive: 2 µM [inhibitor, partial curve, poor fit]"}, {"smiles": "CC1=C(C(=O)OC(C)C)C(c2ccc(C)cc2)N2C(CC(=O)N3CCCCC3)=CSC2=N1", "note": "(stereo unspecified)", "Potency": "inconclusive: 6.31 µM [inhibitor, partial curve, poor fit]"}, {"smiles": "CN1C[C@@H](NC(=O)NC2CCCCC2)C[C@H]1c1nc(-c2cnccn2)no1", "Potency": "inactive"}, {"smiles": "CC(C)CNc1cc(NC2CCCCC2)c2c3c(onc13)-c1ccccc1C2=O", "Potency": "inconclusive: 10 µM [inhibitor, single point]"}, {"smiles": "CC(=O)Oc1c(-c2ccc(NC(=O)c3ccco3)cc2)c(-c2cccc(C)c2)nn1-c1cccc(F)c1", "Potency": "inconclusive: 1.41 µM [inhibitor, partial curve, poor fit]"}, {"smiles": "CN(CCc1ccccc1)CCN1CC2(CCN(c3ncccc3C#N)CC2)OC1=O", "Potency": "inconclusive: 10 µM [inhibitor, partial curve]"}, {"smiles": "CC1CCC2(CC1)NC(=O)N(CC(=O)Nc1ccc(C(C)C)cc1)C2=O", "note": "(stereo unspecified)", "Potency": "inconclusive: 7.94 µM [inhibitor, single point]"}, {"smiles": "COc1cc(C2CC(=O)N(CC(=O)Nc3ccccc3F)c3ccccc3S2)cc(OC)c1OC", "note": "(stereo unspecified)", "Potency": "active: 3.16 µM"}, {"smiles": "Cc1ccc(CCNC(=O)c2ccc(CSc3nc4ccncc4n3Cc3ccc(F)cc3)cc2)cc1", "Potency": "active: 4.47 µM"}, {"smiles": "Cc1ccc(OC2(C(=O)N[C@H]3CCc4ccccc43)CCNCC2)cc1", "Potency": "active: 7.94 µM"}, {"smiles": "O=[S+]([O-])(c1ccccc1)N1CC2(CCCCN2CC2CC2)Cc2ccccc21", "note": "(stereo unspecified)", "Potency": "inconclusive: 8.91 µM [inhibitor, partial curve]"}, {"smiles": "COc1ccc(S(=O)(=O)N2CCC(c3noc(-c4cnccn4)n3)C2)cc1", "note": "(stereo unspecified)", "outcome": "inactive [at 5.79 µM]"}, {"smiles": "O=C(NCC(c1cccnc1)N1CCc2ccccc2C1)C(=O)Nc1cccc(Cl)c1", "note": "(stereo unspecified)", "Potency": "inconclusive: 17.8 µM [inhibitor, single point]"}, {"smiles": "O=C(Cc1ccc(F)cc1)Nc1cccc(-c2nc3cccnc3s2)c1", "Potency": "inactive"}, {"smiles": "Cc1cc(CN2CCC(c3nnc(CN4CCCC4)n3C3CC3)CC2)on1", "Potency": "inactive"}, {"smiles": "CC[C@H]1CN2CC[C@H]1C[C@@H]2CNS(=O)(=O)c1ccc(Cl)cc1", "Potency": "inconclusive: 22.4 µM [inhibitor, single point]"}, {"smiles": "CCc1nn(CC(=O)NCCCN2CCN(C)CC2)c(=O)c2cc3occc3n12", "Potency": "inactive"}, {"smiles": "COCc1nncn1C1CCN(S(=O)(=O)c2cc(F)cc(F)c2)CC1", "Potency": "inactive"}, {"smiles": "Cc1cc(NC(=O)Cn2cccc2-c2nc(-c3ccc4c(c3)OCO4)no2)n[nH]1", "Potency": "inconclusive: 3.98 µM [inhibitor, single point]"}, {"smiles": "COc1cccc(N=C2SC(C(=O)Nc3cccc(Cl)c3)CC(=O)N2C)c1", "note": "(stereo unspecified)", "Potency": "inconclusive: 0.794 µM [inhibitor, partial curve, poor fit]"}, {"smiles": "CN(C)C[C@@H]1CN(Cc2cccnc2)C[C@H]1NC(=O)c1cc2ccccc2[nH]1", "Potency": "inconclusive: 6.31 µM [inhibitor, partial curve, poor fit]"}, {"smiles": "COc1ccc(OC)c(CNC(=O)c2c(OC)cc(=O)n3c2CCCC3)c1", "Potency": "inactive"}, {"smiles": "Cn1cnnc1-c1nn(C)c2c1CN(C(=O)c1cc3ccccc3[nH]1)CC2", "Potency": "inconclusive: 0.178 µM [inhibitor, full curve, poor fit]"}, {"smiles": "CC(=O)N1CCc2c(sc3c2c(=O)n(-c2ccccc2)c(=O)n3Cc2cccc(C(F)(F)F)c2)C1", "Potency": "active: 10 µM"}, {"smiles": "CCCCN(CC)C(=O)C1CCC(CNS(=O)(=O)c2cccc3nsnc23)CC1", "note": "(stereo unspecified)", "Potency": "active: 2.82 µM"}, {"smiles": "N#Cc1cccc(-c2cn3c(n2)N(C(=O)COc2ccccc2)CCC3)c1", "Potency": "inconclusive: 1.78 µM [inhibitor, partial curve, poor fit]"}, {"smiles": "Cc1ccc(OCc2nc(C3CCN(S(=O)(=O)Cc4ccccc4F)C3)no2)cc1", "note": "(stereo unspecified)", "Potency": "inactive"}, {"smiles": "COc1ccc(Cl)cc1NC(=O)CN1C(=O)CSc2ccc(S(=O)(=O)N3CCCC3)cc21", "Potency": "inconclusive: 10 µM [inhibitor, single point]"}, {"smiles": "CCc1ccc(C(=O)c2cn(CC(=O)Nc3cccc(C)c3C)c3nc(C)ccc3c2=O)cc1", "Potency": "inconclusive: 0.708 µM [inhibitor, partial curve, poor fit]"}, {"smiles": "CC(C)c1ccc(N2C(=O)N[C@@H]3CCN(C(=O)C4CCCCC4)[C@@H]3C2=O)cc1", "Potency": "inactive"}, {"smiles": "CC(=O)Nc1ccccc1-c1nc2ccccc2n(C(C)C(=O)Nc2cccc(C)c2C)c1=O", "note": "(stereo unspecified)", "Potency": "inconclusive: 17.8 µM [inhibitor, single point]"}, {"smiles": "O=C(Nc1ccccc1)N(Cc1cccs1)c1ccc(Cl)cc1", "Potency": "inconclusive: 17.8 µM [inhibitor, single point]"}, {"smiles": "O=S(=O)(c1ccc(Cl)cc1)c1nnn2c1nc(NCc1ccccc1)c1sccc12", "Potency": "inconclusive: 17.8 µM [inhibitor, single point]"}, {"smiles": "CC(=O)N(Cc1cccnc1)c1nc2cc(C)cc(C)c2s1", "Potency": "inconclusive: 17.8 µM [inhibitor, single point]"}, {"smiles": "CC[C@H]1CN(C(=O)c2ccnc(Cl)c2)CC[C@H]1CC(=O)NCc1ccc2c(c1)OCO2", "Potency": "inactive"}, {"smiles": "Cn1cccc1C(=O)N1CCCC(n2cc(-c3nc(C4CC4)no3)nn2)C1", "note": "(stereo unspecified)", "Potency": "inactive"}, {"smiles": "CCOC(=O)N1CCN(S(=O)(=O)N2CCCC(C(=O)NCc3ccccc3OC)C2)CC1", "note": "(stereo unspecified)", "Potency": "inactive"}, {"smiles": "CCOc1ccc2c(n1)CCN(C(=O)Nc1ccccc1C)C2", "Potency": "inactive"}, {"smiles": "Fc1ccc(-c2cnc([C@@H]3COCCN3Cc3c[nH]c4ccccc34)[nH]2)c(F)c1", "Potency": "inconclusive: 12.6 µM [inhibitor, single point]"}, {"smiles": "Cc1ccc2ccc3cc(C(=O)Nc4ccc(C)c(F)c4)nc3c2[nH]1", "activity, negative = inhibition": "inconclusive: -96.9% [inhibitor] [at 5.79 µM]"}, {"smiles": "Cn1ccc(C(=O)N2CCC(c3nnc4n3C(C(=O)N3CCOCC3)CC4)CC2)n1", "note": "(stereo unspecified)", "Potency": "inactive"}, {"smiles": "CCOC(=O)c1ccc(CN(Cc2ccc(F)cc2)S(=O)(=O)c2cc(C(=O)Nc3ccccc3CC)ccc2F)cc1", "Potency": "inconclusive: 11.2 µM [inhibitor, single point]"}, {"smiles": "C=CCOc1cc(C)c2c(c1C)[C@H](O)C([C@H](C)C(=O)N(C)Cc1ccccc1)CC2", "note": "(stereo partly specified)", "Potency": "inactive"}, {"smiles": "Cc1nc(N2CCN(C(=O)c3ccc(C#N)cc3)CC2)cc(C(F)(F)F)n1", "Potency": "inconclusive: 10 µM [inhibitor, single point]"}, {"smiles": "Cc1noc(C)c1NC(=O)N1CCC(c2n[nH]c(=O)n2-c2ccccc2)CC1", "Potency": "inconclusive: 0.224 µM [inhibitor, full curve, poor fit]"}, {"smiles": "CC(C)NC(=O)N[C@H]1C[C@@H](Cc2cc(-c3ccccc3)on2)C1(C)C", "Potency": "inactive"}, {"smiles": "Cc1ccc(CN[C@@H]2CO[C@H](CNC(=O)c3ccccc3)[C@H]2O)cc1", "Potency": "inconclusive: 3.98 µM [inhibitor, partial curve, poor fit]"}, {"smiles": "COc1ccc(CNC(=O)CCc2c(C)nn(-c3ccc(N4CCOCC4)nn3)c2C)cc1", "Potency": "inconclusive: 0.0794 µM [inhibitor, full curve, poor fit]"}, {"smiles": "c1cnc(N2CCOCC2)c(OC2CCNC2)n1", "note": "(stereo unspecified)", "Potency": "active: 1.41 µM"}, {"smiles": "Cc1ccc(CNC(=O)c2cc(Sc3ccc(F)cc3F)nc3ccccc23)cc1", "Potency": "inconclusive: 17.8 µM [inhibitor, single point]"}, {"smiles": "CC(=O)Nc1ccc(CN2CCC3(CC2)COc2ccccc2C(=O)N3)cc1", "Potency": "inconclusive: 12.6 µM [inhibitor, single point]"}, {"smiles": "COCC1CN(S(=O)(=O)c2ccc(C#N)cc2)CC12CCNCC2", "note": "(stereo unspecified)", "Potency": "inactive"}, {"smiles": "CCOc1cccc(C2c3[nH]c4ccccc4c3CCN2C(=O)Cc2cccc(OCC)c2OCC)c1", "note": "(stereo unspecified)", "Potency": "inconclusive: 10 µM [inhibitor, partial curve, poor fit]"}, {"smiles": "CCOc1ccc2c(n1)CCN(C(=O)c1ccco1)C2", "Potency": "inconclusive: 7.08 µM [inhibitor, partial curve, poor fit]"}, {"smiles": "Cc1oc2ccn(Cc3ccc(F)cc3)c(=O)c2c1C(=O)NC1CC1", "Potency": "inconclusive: 0.158 µM [inhibitor, full curve, poor fit]"}, {"smiles": "O[C@@H]1C[C@@H](c2nc(-c3ccc(F)cc3)no2)N(Cc2cc3ccccc3o2)C1", "Potency": "inactive"}, {"smiles": "COc1cccc(Nc2cnc3ccc(-c4ccc(OC)c(OC)c4)nn23)c1", "Potency": "inconclusive: 2.51 µM [inhibitor, partial curve, poor fit]"}, {"smiles": "CCC(=O)N(C1CCOCC1)C1CCN(S(=O)(=O)c2cc(F)ccc2C)CC1", "Potency": "inconclusive: 11.2 µM [inhibitor, single point]"}, {"smiles": "CCc1noc([C@@H]2CC(F)(F)CN2C(=O)c2nccn2C)n1", "Potency": "inactive"}, {"smiles": "CCC(=O)N1CCc2cc(Br)cc(S(=O)(=O)N3CCN(c4cccc(Cl)c4)CC3)c21", "Potency": "inconclusive: 0.891 µM [inhibitor, full curve, poor fit]"}, {"smiles": "CC(C)c1ccc(CN2CC[C@@H]3OCC(=O)N(Cc4ccccc4)[C@H]3CC2)cc1", "Potency": "active: 10 µM"}, {"smiles": "COc1cccc(CNC(=O)[C@@H]2C[C@@H](O)CN2C2CCN(C(=O)c3ccc(OC)c(F)c3)CC2)c1", "Potency": "inconclusive: 0.891 µM [inhibitor, full curve, poor fit]"}]}]}
